# The list shows a part of the results. The main result of the screen is listed elsewhere. These columns were measured beside it and carry no call. Words in brackets tell the shape of the fitted curve; partial curves, single points and poor fits give uncertain potencies.
# Test: qHTS drug screen for cell cycle checkpoint inhibitors in PARPi-resistant BRCA-mutant ovarian cancer cell lines. (AID 1963452)
# Conditions: PEO1/OlaR viability, CellTiter-Glo luminescence, 96 h
# In short: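 PEO1, PEO4 and PEO1/OlaR ovarian cancer cells, 600 per well, exposed 96 h at 37C to a dilution series. Viability read by CellTiter-Glo luminescence, normalized to DMSO and empty wells; activity summarized as Z-AUC.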
# [1] = measured here: PEO1 parental viability
# Tags describe the fitted curve by direction and shape.
Structure (SMILES),AC50 [1],AC50 (measured here: PEO4 viability)
Cc1cc(C(=O)Nc2cc(Oc3ccc4nc(NC(=O)C5CC5)cn4n3)ccc2C)n(C)n1,"17.4 µM [falling, partial curve]","13.8 µM [falling, partial curve]"
C[C@H](NC(=O)/C(C#N)=C/c1cccc(Br)n1)c1ccccc1,"15.5 µM [falling, single point]","6.92 µM [falling, partial curve]"
Nc1ccc(F)cc1NC(=O)c1ccc(CNC(=O)/C=C/c2cccnc2)cc1,"7.76 µM [falling, partial curve]","27.5 µM [falling, single point]"
CC(=O)c1cnc2ccc(-c3cc(Cl)c(O)c(Cl)c3)nc2c1NC1CCC(CN(C)C)CC1 (stereo not drawn),"0.448 µM [falling, full curve]","0.633 µM [falling, full curve]"
O=C1Nc2nc(-c3c(O)cccc3OCC3CC3)cc([C@@H]3CCCNC3)c2CO1,"15.5 µM [falling, single point]","15.5 µM [falling, single point]"
CCOc1cc2ncc(C#N)c(Nc3ccc(OCc4ccccn4)c(Cl)c3)c2cc1NC(=O)/C=C/CN(C)C,"2.19 µM [falling, partial curve]","12.3 µM [falling, partial curve, poor fit]"
COc1cccc2c1C(=O)c1c(O)c3c(c(O)c1C2=O)C[C@@](O)(/C(CO)=N/NC(=O)CCCCCN1C(=O)C=CC1=O)C[C@@H]3O[C@H]1C[C@H](N)[C@H](O)[C@H](C)O1,"0.389 µM [falling, full curve]","0.776 µM [falling, full curve]"
CCCNC(=O)[C@H]1O[C@@H]1C(=O)N[C@H](C(=O)N1CCC[C@H]1C(=O)OC)C(C)CC (stereo partly drawn),"24.5 µM [falling, single point]","17.4 µM [falling, single point]"
Cc1cc(I)ccc1Nc1c(C(=O)NOCC2CC2)cc(F)c(F)c1F,"6.92 µM [falling, partial curve]","12.3 µM [falling, partial curve]"
CN(C)C/C=C/C(=O)Nc1ccc(C(=O)N2CCC[C@@H](Nc3ncc(Cl)c(-c4c[nH]c5ccccc45)n3)C2)cc1,"0.0977 µM [falling, full curve]","0.138 µM [falling, full curve]"
CC(C)(O)C1CCC(Nc2ccc3ncc(-c4cccc(C(F)(F)F)c4)n3n2)CC1 (stereo not drawn),"8.71 µM [falling, partial curve]","6.92 µM [falling, partial curve]"
COc1ccc(N(C)c2nc(C)nc3ccccc23)cc1,"0.0087 µM [falling, full curve]","0.0098 µM [falling, full curve]"
Nc1nc2c(c(=O)[nH]1)N1CN(c3ccc(C(=O)N[C@@H](CCC(=O)O)C(=O)O)cc3)CC1CN2 (stereo partly drawn),"1.23 µM [falling, full curve]","6.16 µM [falling, partial curve]"
COc1ccc2cc(OCC3(C(=O)O)CN(C(=O)c4ccc(F)cc4)C3)ccc2c1,"0.0692 µM [rising, full curve, poor fit]","0.174 µM [rising, partial curve, poor fit]"
CC(=O)O/N=C1\C(=O)N(Cc2cc(Cl)ccc2Cl)c2ccc(Cl)cc21,"15.5 µM [falling, single point]","13.8 µM [falling, single point]"
CCOC(=N)c1nc2ccc3ncnc(Nc4cc(F)c(F)cc4Cl)c3c2s1,"5.49 µM [falling, partial curve]","6.16 µM [falling, partial curve]"
O=C(O)CC1CCC(c2ccc(-c3ccc(Nc4ccc(C(F)(F)F)nc4)cn3)cc2)CC1 (stereo not drawn),"4.9 µM [rising, partial curve]","0.123 µM [falling, single point]"
CCN(CC)CCNC(=O)c1c(C)[nH]c(/C=C2/C(=O)Nc3ccc(-c4csc(-c5ccccc5)n4)cc32)c1C,"24.5 µM [falling, single point]","4.36 µM [falling, full curve]"
COc1cc2c3c(n(CCCN4CCOCC4)c(=O)c2cc1OC)-c1cc2c(cc1C3=O)OCO2,"0.0616 µM [falling, full curve]","3.09 µM [falling, partial curve]"

# From PubChem BioAssay (NCATS)
